Target: T1, glutathione S-transferase (GST)-Sec4p (S. cerevisiae, UniProt P07560 1-215)
T1 construct: Sec4p, yeast Rab GTPase, S. cerevisiae; Stripped of nucleotide with EDTA, then loaded with 1.5 mM GTPγS or 1.5 mM GDP before the assay; also called GTPγS-GST-Sec4p; GTPγS-Sec4p; source: E. coli BL21(DE3) RIL, purified and immobilized on magnetic glutathione beads; not shown: GST, N-terminal, kept
T1 sequence (looked up): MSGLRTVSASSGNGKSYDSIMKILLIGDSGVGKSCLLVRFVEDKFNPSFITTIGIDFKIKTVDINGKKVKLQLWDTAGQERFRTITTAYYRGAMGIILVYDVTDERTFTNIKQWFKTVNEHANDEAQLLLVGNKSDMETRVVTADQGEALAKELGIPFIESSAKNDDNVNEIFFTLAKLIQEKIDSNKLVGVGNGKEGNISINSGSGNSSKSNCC
Assay: pull-down; 1 μg GST fusion immobilized on magnetic glutathione beads, preloaded with 1.5 mM GTPγS; 10 μl in vitro translated ^35S-labeled protein added, 1 h at 23°C; 150 mM Tris pH 7.5, 1.5 mM MgCl2, 250 mM NaCl, 0.5% Triton X-100; SDS-PAGE and autoradiography
Conditions: one partner purified

- fold binding with GTPγS against GDP: 2.8 fold
B1: ^35[S]-labeled Las17p-Myc (natural protein)
chain: not shown
modifications: ^35S-labeled
notes: Las17p (Bee1p), yeast Wiskott-Aldrich syndrome protein homologue, S. cerevisiae; In the functional row the Las17p of the test was bacterially expressed GST-Las17p, not this construct; also called ^35S-Las17p; radiolabeled Las17p; source: in vitro translated (TNT T7 Coupled Reticulocyte Lysate System, Promega); not shown: Myc, C-terminal, kept

Reference: publication PMC4985162, “Polarized Exocytosis Induces Compensatory Endocytosis by Sec4p-Regulated Cortical Actin Polymerization” (PLoS Biology, 2016)
